Measured values published in the supplement of paper PMC8728848.
This is one part of the list.

What was measured:
Assay in all cases: glycan array binding signal (z-score within array); higher = stronger binding
Conditions in all cases: glycan notation: IUPAC condensed, linker removed
[1] = target: Neu5Ac(a2-3)Gal(b1-4)GlcNAc(b1-2)Man(a1-3)[Neu5Ac(a2-6)Gal(b1-4)GlcNAc(b1-2)Man(a1-6)]Man(b1-4)GlcNAc(b1-4)GlcNAc
Outline: (§1)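 The Consortium for Functional Glycomics database supplied 3228 glycan arrays, of which those lacking an available protein sequence were dropped. The binding signal, a within-array Z-score, was averaged across arrays of the same protein sequence and across linkers. Negative scores can be read as non-binding.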

[2] = target: Neu5Ac(a2-3)Gal(b1-4)GlcNAc(b1-2)[Neu5Ac(a2-3)Gal(b1-4)GlcNAc(b1-4)]Man(a1-3)[GlcNAc(b1-4)][Neu5Ac(a2-3)Gal(b1-4)GlcNAc(b1-2)[Neu5Ac(a2-3)Gal(b1-4)GlcNAc(b1-6)]Man(a1-6)]Man(b1-4)GlcNAc(b1-4)GlcNAc
Outline: as §1

[3] = target: Neu5Ac(a2-3)Gal(b1-4)GlcNAc(b1-2)[Neu5Ac(a2-3)Gal(b1-4)GlcNAc(b1-4)]Man(a1-3)[GlcNAc(b1-4)][Neu5Ac(a2-3)Gal(b1-4)GlcNAc(b1-4)Man(a1-6)]Man(b1-4)GlcNAc(b1-4)GlcNAc
Outline: as §1

[4] = target: Neu5Ac(a2-3)Gal(b1-4)GlcNAc(b1-2)[Neu5Ac(a2-3)Gal(b1-4)GlcNAc(b1-6)]Man(a1-6)[Neu5Ac(a2-3)Gal(b1-4)GlcNAc(b1-2)Man(a1-3)][GlcNAc(b1-4)]Man(b1-4)GlcNAc(b1-4)GlcNAc
Outline: as §1

[5] = target: Neu5Ac(a2-3)Gal(b1-4)GlcNAc(b1-3)Gal
Outline: as §1

[6] = target: Neu5Ac(a2-3)Gal(b1-4)GlcNAc(b1-3)Gal(b1-3)GlcNAc
Outline: as §1

[7] = target: Neu5Ac(a2-3)Gal(b1-4)GlcNAc(b1-3)Gal(b1-4)GlcNAc
Outline: as §1

[8] = target: Neu5Ac(a2-3)Gal(b1-4)GlcNAc(b1-3)Gal(b1-4)GlcNAc(b1-2)Man(a1-3)[Neu5Ac(a2-3)Gal(b1-4)GlcNAc(b1-3)Gal(b1-4)GlcNAc(b1-2)Man(a1-6)]Man(b1-4)GlcNAc(b1-4)GlcNAc
Outline: as §1

[9] = target: Neu5Ac(a2-3)Gal(b1-4)GlcNAc(b1-3)Gal(b1-4)GlcNAc(b1-3)Gal(b1-4)GlcNAc
Outline: as §1

[10] = target: Neu5Ac(a2-3)Gal(b1-4)GlcNAc(b1-3)Gal(b1-4)GlcNAc(b1-3)Gal(b1-4)GlcNAc(b1-2)Man(a1-3)[Neu5Ac(a2-3)Gal(b1-4)GlcNAc(b1-3)Gal(b1-4)GlcNAc(b1-3)Gal(b1-4)GlcNAc(b1-2)Man(a1-6)]GalNAc
Outline: as §1

[11] = target: Neu5Ac(a2-3)Gal(b1-4)GlcNAc(b1-3)Gal(b1-4)GlcNAc(b1-3)GalNAc
Outline: as §1

[12] = target: Neu5Ac(a2-3)Gal(b1-4)GlcNAc(b1-3)Gal(b1-4)GlcNAc(b1-3)[Neu5Ac(a2-3)Gal(b1-4)GlcNAc(b1-3)Gal(b1-4)GlcNAc(b1-6)]GalNAc
Outline: as §1

[13] = target: Neu5Ac(a2-3)Gal(b1-4)GlcNAc(b1-3)Gal(b1-4)GlcNAc(b1-6)[Gal(b1-3)]GalNAc
Outline: as §1

[14] = target: Neu5Ac(a2-3)Gal(b1-4)GlcNAc(b1-3)Gal(b1-4)[Fuc(a1-3)]GlcNAc
Outline: as §1

[15] = target: Neu5Ac(a2-3)Gal(b1-4)GlcNAc(b1-3)GalNAc
Outline: as §1

[16] = target: Neu5Ac(a2-3)Gal(b1-4)GlcNAc(b1-3)[Neu5Ac(a2-3)Gal(b1-4)GlcNAc(b1-6)]GalNAc
Outline: as §1

[17] = target: Neu5Ac(a2-3)Gal(b1-4)GlcNAc(b1-6)GalNAc
Outline: as §1

[18] = target: Neu5Ac(a2-3)Gal(b1-4)GlcNAc(b1-6)[Gal(b1-3)]GalNAc
Outline: as §1

[19] = target: Neu5Ac(a2-3)Gal(b1-4)GlcNAc(b1-6)[Neu5Ac(a2-3)Gal(b1-3)]GalNAc
Outline: as §1

[20] = target: Neu5Ac(a2-3)Gal(b1-4)GlcNAc6S
Outline: as §1

[21] = target: Neu5Ac(a2-3)Gal(b1-4)[Fuc(a1-3)]GlcNAc
Outline: as §1

[22] = target: Neu5Ac(a2-3)Gal(b1-4)[Fuc(a1-3)]GlcNAc(b1-2)Man
Outline: as §1

[23] = target: Neu5Ac(a2-3)Gal(b1-4)[Fuc(a1-3)]GlcNAc(b1-3)Gal
Outline: as §1

[24] = target: Neu5Ac(a2-3)Gal(b1-4)[Fuc(a1-3)]GlcNAc(b1-3)Gal(b1-4)GlcNAc
Outline: as §1

[25] = target: Neu5Ac(a2-3)Gal(b1-4)[Fuc(a1-3)]GlcNAc(b1-3)Gal(b1-4)[Fuc(a1-3)]GlcNAc(b1-3)Gal(b1-4)[Fuc(a1-3)]GlcNAc
Outline: as §1

[26] = target: Neu5Ac(a2-3)Gal(b1-4)[Fuc(a1-3)]GlcNAc(b1-3)GalNAc
Outline: as §1

[27] = target: Neu5Ac(a2-3)Gal(b1-4)[Fuc(a1-3)]GlcNAc(b1-6)[Gal(b1-3)]GalNAc
Outline: as §1

[28] = target: Neu5Ac(a2-3)Gal(b1-4)[Fuc(a1-3)]GlcNAc(b1-6)[Neu5Ac(a2-3)Gal(b1-3)]GalNAc
Outline: as §1

[29] = target: Neu5Ac(a2-3)Gal(b1-4)[Fuc(a1-3)]GlcNAc6S
Outline: as §1

[30] = target: Neu5Ac(a2-3)Gal6S(b1-4)GlcNAc
Outline: as §1

B1: Epa1-NP (Candida glabrata), Q6VBJ0 (protein)
chain: MILNPALFLNKCVCIYTTLILLLLTNGGYATSSNDISLASKDPTTFPLGCSPDITTPKKGLSMELYSYDFRKKGSYPCWDAAYLDPNYPRTGYKSHRLLAKVDGVTGNINFYYHATKGCTPQLGHLPASYNYPKPLTMTNFTMLLYGYFRPKVTGFHTFTISADDLLFVNFGAGNAFDCCRRDSSADHFGNYQAYAIWGSKTAKDELTVHLDAGVYYPIRLFYNNREYDGALSFTFKTESNENTVSDFSEYFFSLDDTEEGCPGLISYDSSCASVKTSKIIGIDYHTETPNENLVPITKTIYHLGIPCTGTTTTPLCGSGFYDPLANKCVTINTSSTSSVTKTTSHTTSKEVSFHSSISSQKTLIPKSIPSPYGPIKSQSIPTEMETSSEISSSEYAFSDVISTPSHSPYTKKHSSLNSSSYTSTVIHSLTSYSISQGIFSTSLSEQNITSKSSTDKFSTATSMSNNITQSSIIISQFSTNNENYTTTSMHTSSDKISTETLNNSISTTTSILFSNSSTILKNNTTIISSDKDTHYHPVNPTIVCSTNKTEIICASITQPSISNSNNHWSSSVLKFNSTTVRSTLPSSAGSNETSINVPFSSSTESNTSTSSTSTSNSKMVRSTLPSSAGSNETSISVPFSSSTESNTSTSSTSTSNSKMVRSTLPSSAGSNETSINVPFSSSTESNTSTSSTSTSNSKTVRSTPFSSAGIIMTSLSQRNNKSASSYASSNSKCYNTADSCRKVHSTPSYLLTSSYTSEGVDYDCSLVSTKLKINDTNCVNNKHTTKSCLKTSVTTTIPTLEIKTARKSSSNTIGLHSYPTSSPNKSISSAPIIGYISSFKTIKTASPSYQTSDLTTITTITSLNNPGSTAVENTHESNDKSRKTSSNDISSKHSVIKETKDAVESSNKSHQTNTLKCSSIIIASSSHNSYESLGGTTLTLTLSKVYSPQNNDTLPFLEISEVNPSRTVLPESSKMMQYLTSTEERNKTARNTIATNIVSISTFHFEGEGNAIRMGYTQLLLMLIGIIVMNIGT
**Q.** With B1 as the binder, how does the “glycan array binding signal (z-score)” value [1] read?
**A.** -0.299

**Q.** And the “glycan array binding signal (z-score)” value [2]?
**A.** -0.294

**Q.** And the “glycan array binding signal (z-score)” value [3]?
**A.** -0.295

**Q.** And the “glycan array binding signal (z-score)” value [4]?
**A.** -0.281

**Q.** And the “glycan array binding signal (z-score)” value [5]?
**A.** -0.263

**Q.** And the “glycan array binding signal (z-score)” value [6]?
**A.** -0.318

**Q.** And the “glycan array binding signal (z-score)” value [7]?
**A.** -0.313

**Q.** And the “glycan array binding signal (z-score)” value [8]?
**A.** -0.207

**Q.** And the “glycan array binding signal (z-score)” value [9]?
**A.** -0.422

**Q.** And the “glycan array binding signal (z-score)” value [10]?
**A.** -0.272

**Q.** And the “glycan array binding signal (z-score)” value [11]?
**A.** -0.291

**Q.** What about the “glycan array binding signal (z-score)” value [12] of the same binder?
**A.** -0.083

**Q.** And the “glycan array binding signal (z-score)” value [13]?
**A.** 0.646

**Q.** What about the “glycan array binding signal (z-score)” value [14] of the same binder?
**A.** -0.418

**Q.** What about the “glycan array binding signal (z-score)” value [15] of the same binder?
**A.** -0.306

**Q.** And the “glycan array binding signal (z-score)” value [16]?
**A.** -0.286

**Q.** And the “glycan array binding signal (z-score)” value [17]?
**A.** -0.288

**Q.** And the “glycan array binding signal (z-score)” value [18]?
**A.** 1.85

**Q.** And the “glycan array binding signal (z-score)” value [19]?
**A.** -0.253

**Q.** And the “glycan array binding signal (z-score)” value [20]?
**A.** -0.327

**Q.** And the “glycan array binding signal (z-score)” value [21]?
**A.** -0.326

**Q.** And the “glycan array binding signal (z-score)” value [22]?
**A.** -0.289

**Q.** What about the “glycan array binding signal (z-score)” value [23] of the same binder?
**A.** -0.324

**Q.** And the “glycan array binding signal (z-score)” value [24]?
**A.** -0.211

**Q.** And the “glycan array binding signal (z-score)” value [25]?
**A.** -0.334

**Q.** What about the “glycan array binding signal (z-score)” value [26] of the same binder?
**A.** 0.089

**Q.** What about the “glycan array binding signal (z-score)” value [27] of the same binder?
**A.** 0.111

**Q.** And the “glycan array binding signal (z-score)” value [28]?
**A.** -0.253

**Q.** And the “glycan array binding signal (z-score)” value [29]?
**A.** -0.331

**Q.** And the “glycan array binding signal (z-score)” value [30]?
**A.** -0.318
